Measured values: patent US20220119501A1 (INVISISHIELD TECHNOLOGIES, published 2022)

Biological target: S1 subunit polypeptide of SARS-CoV-2 spike protein (isolate 2019-nCoV, WIV4) (SARS-CoV-2 (isolate 2019-nCoV, WIV4))
Assay: phage ELISA on SARS-CoV-2 spike S1 (FIG. 1)

B1: anti-S1 (SARS-CoV-2) scFv clone #85 (scFv)
scFv: QAVLTQPPSASGTPGQMVTISCSGSNSNIGSNPVNWYQQLPGTAPKLLIYGNDERPSGVPDRFSGSKSGTSASLAISGLQSEDEADYYCAAWDDSLDGHVIFGGGTKLTVLGSRGGGGSGGGGSGGGGSLEMA[about 100 residues not spelt out]GYSDYWGQGTLVTVSSTSGQAGQ
notes: also called phage clone #85
B1: binds.

B2: anti-S1 (SARS-CoV-2) scFv clone #04 (scFv)
scFv: QSVLTQPPSASGTPGQRVTISCSGGSSNIGSNPVNWYQQLPGTAPKLLIYSNNQRPSGVPDRFSGSKSGTSASLAISGLQSEDEADYYCAAWDDSLSGSVLFGGGTKLTVLGSRGGGGSGGGGSGGGGSLEMA[about 100 residues not spelt out]GYSDRWGQGTLVTVSSTSGQAGQ
notes: also called phage clone #04
B2: binds.
